The source gives no read counts; variants with many changes may rest on few reads.
B1: LINE1-mini (parent)
chain: GGCAGAGCUCAACACAGCGUGGCAAAGUGGCUGUGGCUAGACUGCC

Variants of: B1
Test: self-cleavage, relative activity (ratio to wild type); higher = more cleavage; in vitro, sequencing; the parent is a self-cleaving ribozyme
With GGCAGAGCUCAACAUAGCGUGGCAUGGCGACUGUGGCUAGACUGCC [C15U A25U A26G U28C G30A] the self-cleavage was 0.4.
Variant GGCAGAGCUCAAAACAGCGUGGCAAAGUGGCUGUGGCUUGACUGAC [C13A A39U C45A] has a self-cleavage of 0.09.
GGCAGAGCUCAACACAGCGAGGCAAAGUUGCUGUUGCUAGACUGCU [U20A G29U G35U C46U] showed a self-cleavage of 0.03.
Work on GGCAGAGCUCAACACAGCGUGGCAAAGUGUCUGUUGCUAGACUGUC [G30U G35U C45U] yielded a self-cleavage of 0.15.
GGCAGCGCUCAACACGGCGUGGCAGAGUGGCUGUUGCUAGACUGCC [A6C A16G A25G G35U] showed a self-cleavage of 0.
In the case of AGCAGAGCUCAACACAGCGUGGCAAGGUGGCUGUGGCGAGACUGCC [G1A A26G U38G], the self-cleavage is reported as 0.02.
GGCAGAGCACAACACAGCAUACCAAAGUGGCUGUGGCUAGACUGCC [U9A G19A G21A G22C] showed a self-cleavage of 0.05.
In the case of GGCAGACGUCAACACAGCGUGGCAAAGUGGGUGUGGCUAGACUGCC [G7C C8G C31G], the self-cleavage is reported as 0.1.
Variant GGGAGAGCUCACCACAGCGUGGCAAAGUGGCUGUGGCUAUACAGCC [C3G A12C G40U U43A] has a self-cleavage of 0.02.
GGCAGAGCUCAACACUGCGUCGCAAAGUGGCCGUAGCUAGACUGCC [A16U G21C U32C G35A] showed a self-cleavage of 0.04.
In the case of GGCAGUGCUCAACAUAGCGUGGUAAAGUGGCUGUAGCUAGACUGCC [A6U C15U C23U G35A], the self-cleavage is reported as 0.09.
With GGCAGCGCUCGACACAGGGUGGGAAAGUGGCUGUGACUAGACUGCC [A6C A11G C18G C23G G36A] the self-cleavage was 0.
With GGCGGCGCUCAACACAGCGUGGAAAAGUGGCUGUGCCUAUACUGCC [A4G A6C C23A G36C G40U] the self-cleavage was 0.21.
In the case of GGCAGAGUUCAACACAGUGUGGGAAAGUGGCUGUGGGUAGACUGCC [C8U C18U C23G C37G], the self-cleavage is reported as 0.16.
GGCAGAGCUCAGCACAGCGUGGAAAAGUGGCUGUGGCUAGACUGUC [A12G C23A C45U] gave a self-cleavage of 0.
In the case of GGCGGAUAUCAACACAGCGUGGCAAAGUGGCUGUGGCUAUACUGCC [A4G G7U C8A G40U], the self-cleavage is reported as 0.3.
Variant GGCAGAGCUCAACACAAUGUGGCAAAGGGGCUUUGUCUAGACUGCC [G17A C18U U28G G33U G36U] has a self-cleavage of 0.02.
For GGGAGAGCUCAAGACAGCGUGGCCAAGUGGCUGUGGCUAGGCUCCC [C3G C13G A24C A41G G44C], the self-cleavage was 0.09.
GGCAGAGCUCAACACAGGGUGGCAAAGUGGCUGGGGCUAGACUGGG [C18G U34G C45G C46G] gave a self-cleavage of 0.02.
For GGCAGAGCUCAACACAGCGUGGCAAAGAGACUGUGGCCAGACUGCC [U28A G30A U38C], the self-cleavage was 0.18.
With GGCAGAGCUCAACACAUCGUGGCAUAGUGGCUGUGGGUAGACUGCC [G17U A25U C37G] the self-cleavage was 0.06.
GGCAGGGAUCAACACAGCGUGGCAAACUGUCUGUGGCUAGACUGCC [A6G C8A G27C G30U] showed a self-cleavage of 0.03.
With CGCAGAGCUCAACACCGCGUGGCUAAGUGGCUGUGGCUAGACUGCC [G1C A16C A24U] the self-cleavage was 0.01.
Variant GGCAGAGCUCCACACAGCGUGGCAAAGUGGCUGUGGCGAGUCUGCC [A11C U38G A41U] has a self-cleavage of 0.02.
GGCAGAGCUCAACACAACGUGGCAAAAUGGCUGUUGCUAGACUGCC [G17A G27A G35U] showed a self-cleavage of 0.09.
Variant GGCGGAGCUCAACACAGCGUGUCAAAGUGGUUCUGGCUAGACUGCC [A4G G22U C31U G33C] has a self-cleavage of 0.12.
GGCAGAGCUCAACACACCGUGGCAAAGUGGCUGUGGGUUGACUGCC [G17C C37G A39U] gave a self-cleavage of 0.04.
Variant GACAGAGCUAAACACAGCGUGGCAAAGUUGCUGUGGCUAGACUGCC [G2A C10A G29U] has a self-cleavage of 0.05.
Work on GGCCGAGCUCAACACAGCGUGGCAAAUUGGCUGUGGCUAGACGGCC [A4C G27U U43G] yielded a self-cleavage of 0.07.
In the case of GGCAAAGCGCAACAAACCGUGGCAAAGUCGCUGUGGCUAAACUGCC [G5A U9G C15A G17C G29C G40A], the self-cleavage is reported as 0.07.
Work on GGCAAAGCUCAACACAGCGUGGCAAAGUGCGUGUGGCUAGACUGCC [G5A G30C C31G] yielded a self-cleavage of 0.05.
For ACCAGAGCUCAACUCAGCGUAGCAAAGUGGCUGUGGCUAGACUGCC [G1A G2C A14U G21A], the self-cleavage was 0.11.
Variant GGUAGAGUCCAACACAACGUGGCAAAGUGGCUGUGGCUAGACUGCC [C3U C8U U9C G17A] has a self-cleavage of 0.05.
Work on GGCAGUGCUCCACAAAGCGUGGCAAAGUGACUGUGGCUAGACUGCC [A6U A11C C15A G30A] yielded a self-cleavage of 0.03.
GGCAGUGCUCAACACAGCGUCGCACAGUGGCUGUUGCUAGACUGCC [A6U G21C A25C G35U] showed a self-cleavage of 0.07.
With GGCAGACCUCAAUACAUCGUGACAAAGUGGCUGUGGCUCGACUGCC [G7C C13U G17U G22A A39C] the self-cleavage was 0.04.
AGUAGAGCUCAACACAGCGUGGCAAAGUGGCUGUAGCUAGGCUGCC [G1A C3U G35A A41G] gave a self-cleavage of 1.68.
In the case of GGCAGAGCUCAACACAACGUGGCCAAGUGGCUCUGGCUAGACUACC [G17A A24C G33C G44A], the self-cleavage is reported as 0.01.
Variant GGCAGAACUCAAUACAGCGCGGCAAAGUGGCUGUGGCUAGACUGCC [G7A C13U U20C] has a self-cleavage of 0.2.
In the case of GGAAGAGCUCAACACAGCGUGGCAAAGGGGCUGUGUUUAGACUGUC [C3A U28G G36U C37U C45U], the self-cleavage is reported as 0.01.
Work on GGCAGAGAUCAACAUAGCGUGGCAAAGUGACUGUGGCUAAACUGCC [C8A C15U G30A G40A] yielded a self-cleavage of 0.44.
Work on AGCAGCGCUCAACACAGCGGGGCAAAGUGGCUGUGGCUAGACUGCC [G1A A6C U20G] yielded a self-cleavage of 0.33.
Variant GGGAGAGCUCAACACAGCGUGGCAAAGUGGCUGUGGGUAGACUGAC [C3G C37G C45A] has a self-cleavage of 0.08.
In the case of GUCAGAGCUCAACACAGCGUGGCAAAGUGUCUGUGGCUAGACUGCA [G2U G30U C46A], the self-cleavage is reported as 0.08.
Work on GGCGGAGCUCAACACUGCGUGGCAAAGUGGCUGUGGUUAGACUGCC [A4G A16U C37U] yielded a self-cleavage of 0.15.
UGCAGAGCUCAACACAGUCUGGCAAAGUGGCUGUGGCUAGACUGCC [G1U C18U G19C] gave a self-cleavage of 0.66.
For GGCAGAGAUCAUCACAGCGUGGCAUAGUGGCUGUGGCUAGAGUGCC [C8A A12U A25U C42G], the self-cleavage was 0.05.
GGCCGAGCUCAACCCAAGGUGGCAAAGUGGCUGUGGCUACACUGCC [A4C A14C G17A C18G G40C] gave a self-cleavage of 0.05.
GGUAGAGCUCAACACAGGGUGGAAAAGUGGCUGUGGCUAGACUGCU [C3U C18G C23A C46U] showed a self-cleavage of 0.05.
Work on GGGAGAGCUCAACACAGCGUGGCAUAGUGGCUGUGGCUAGGCUGCC [C3G A25U A41G] yielded a self-cleavage of 0.05.
In the case of GGCAGAGCUCUACACAGCGUGGCAAAGGGGCUGUGGCUAAACUGCC [A11U U28G G40A], the self-cleavage is reported as 0.
For GGCAGAGCUCAACAAAACGUGGCAAAGUGGCUGUGGCUAGACAGCA [C15A G17A U43A C46A], the self-cleavage was 0.02.
Variant UGCAGAGCUCAACACAGCGAGGCAACGUGGCUGUGGCUAGACUGCC [G1U U20A A26C] has a self-cleavage of 0.14.
For AGCAGAGCUCAUCACAUCGUGGCAAAGUGGCUGUGGCUAGACUGCC [G1A A12U G17U], the self-cleavage was 0.13.
With UGCAGAGCUCAAAACAGCGUGGCAAAAUUGCUCUGGCUAGACUGUC [G1U C13A G27A G29U G33C C45U] the self-cleavage was 0.02.
With GGCAGAGCUGAACGCAGCGUGGCAAAGUGGCUGUGGCUAGACCGCU [C10G A14G U43C C46U] the self-cleavage was 0.01.

From the RNAGym collection of RNA variant scans (doi:10.7554/elife.90254)
